According to PubChem BioAssay AID1671193 (National Center for Advancing Translational Sciences (NCATS), 2021):
In all, about 150,000 compounds went through this assay and about 180 (0.12%) were called active. This list was built around the results that the source calls inconclusive (neither active nor inactive); the mix of calls is not that of the screen. The call rests on the fitted dose curve; in most records, active means well fitted cell-killing curve with a large enough effect; inconclusive means small, poorly fitted or top-dose-only effect, or effect the other way; inactive means flat fitted curve, though single readings scatter. Potencies beside an inconclusive call are fits to weak or partial responses and may not hold up.

assay: GF-AFC viability counterscreen for inhibitors of alpha-synuclein gene (SNCA) expression; conditions: HEK-293-SNCA-luc viability, GF-AFC fluorescence, 24 h; activity change, negative = cytotoxicity: at 57.1 µM (top of the series) unless noted; further: nearly all actives have a fitted effect of over 30% in size;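 on activity change, negative = cytotoxicity: 0% = DMSO-treated cells and -100% = medium-only wells without cells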
Procedure, shortened: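 HEK-293-SNCA-luc cells (1500/well) plated 24 h, then exposed 24 h to a dilution series; GF-AFC added 30 min at 37C, fluorescence 405/540 nm; normalised to medium-only and DMSO wells, Hill fit.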
Potency means the concentration at half of the fitted maximal effect; tags describe the fitted curve by direction and shape.

Row | Structure (SMILES) | Potency | activity change, negative = cytotoxicity
1 | O=C(Nc1ccc2nc3n(c(=O)c2c1)CCCCC3)c1cccc(C(F)(F)F)c1 | inconclusive: 31.6 µM [cytotoxic, single point] | –
2 | COCC1CN(C2CCC2)CC12CCN(C(=O)COc1ccccc1)CC2 (stereo not drawn) | inactive | –
3 | Cc1ccc(Cl)cc1NC(=O)COC(=O)CC(C)(C)CC1=NS(=O)(=O)c2ccccc2N1 | inconclusive: 31.6 µM [cytotoxic, single point] | –
4 | O=C(NCc1nnc2cc(-c3nc(C4CC4)no3)ccn12)c1ccc(F)cc1 | inactive | –
5 | COc1cc(NC(=O)CC2C(=O)OCCN2Cc2ccccc2)cc(OC)c1 (stereo not drawn) | inconclusive: 10 µM [cytotoxic, partial curve, poor fit] | –
6 | Cc1nn2c(c1-c1cccc3cn[nH]c13)N(C(=O)Cc1ccccc1)CCC2 | inactive | –
7 | N#Cc1ccc2[nH]c(O)c(-c3ccc(CN4CCOCC4)cn3)c2c1 | inactive | –
8 | CCOc1cc(CNC(=O)Cn2c(=O)c3cccn3c3ccc(F)cc32)cc(OCC)c1OCC | inconclusive: 31.6 µM [rising, partial curve, poor fit] | –
9 | COc1cc2c(=O)c(C(=O)c3ccc(C)c(C)c3)cn(Cc3ccc(F)cc3)c2cc1OC | inconclusive: 4.47 µM [cytotoxic, full curve, poor fit] | –
10 | O=C(NCC1CC1)c1ccnc(-c2nnc3ccc(Nc4ccccc4)nn23)c1 | inconclusive: 56.2 µM [cytotoxic, single point] | –
11 | COc1cccc(C(=O)N2CCc3nc(C(C)C)nc(-c4ccc(O)cc4)c3CC2)c1 | inactive | –
12 | CCc1ccc(C(=O)NC2CCN(c3cc(-c4ccc(OC)cc4)[nH]n3)C2)cc1 (stereo not drawn) | inconclusive: 3.16 µM [cytotoxic, full curve, poor fit] | –
13 | Cc1ccccc1N1Cc2c(ncnc2N2CCC(O)CC2)N(C)CC1=O | inactive | –
14 | Cc1noc(C)c1C(=O)N1C[C@@H](CO)[C@H](c2ccncc2)C1 | inconclusive: 5.62 µM [cytotoxic, single point] | –
15 | COc1cccc(NC(=O)Cn2c(C)ccc(NS(=O)(=O)c3ccccc3)c2=O)c1 | inactive | –
16 | CCC(CC)C(=O)Nc1ccc(OCc2cc(=O)n3ccc(C)cc3n2)cc1 | inconclusive: 7.08 µM [cytotoxic, single point] | –
17 | CN(C)c1ccc(CN2CCc3nc(N4CCN(c5ccccn5)CC4)ncc3C2)cc1 | inconclusive: 39.8 µM [cytotoxic, single point] | –
18 | COc1ccc2ccc(OCc3nc(C(=O)N4CCCC(C)(CO)C4)co3)cc2c1 (stereo not drawn) | inconclusive: 20 µM [cytotoxic, partial curve] | –
19 | COc1ccc(-n2nc(C)c([C@H]3C=C[C@@H](OC(=O)Nc4cccc(F)c4)C3)c2C)cc1 | inconclusive: 28.2 µM [cytotoxic, partial curve, poor fit] | –
20 | O=C(NCCC1CCN(C(=O)Nc2cc(F)ccc2F)CC1)c1ccc2nc[nH]c2c1 | inconclusive: 8.91 µM [cytotoxic, single point] | –
21 | COc1ccc(Cl)cc1-c1ccc2c(c1)C(=O)N1CCN(C(=O)CN)C[C@H]1C(=O)N2 | inactive | –
22 | CN(C)c1ncc2nc(-c3cc(F)cc(F)c3)c(=O)n(CCc3ccccc3)c2n1 | inconclusive: 15.8 µM [rising, single point] | –

Row | Structure (SMILES) | Potency | activity change, negative = cytotoxicity
23 | Cc1ccc(C)c(OCC(=O)c2ccc3c(c2)N(CCCC(=O)N2CCCC2)C(=O)CO3)c1C | inconclusive: 2.51 µM [cytotoxic, full curve, poor fit] | –
24 | CN(C)S(=O)(=O)N(CC(=O)Nc1ccc(Br)cc1F)c1ccccc1 | inconclusive: 8.91 µM [rising, full curve, poor fit] | –
25 | COc1cccc(CN2CC[C@@H]3C(=O)NCCCCCCN(Cc4ccncc4)[C@@H]3C2)c1OC | inconclusive: 5.01 µM [cytotoxic, single point] | –
26 | CCCCc1nn(CC(=O)NC[C@H]2CCc3ccccc3O2)c(=O)n1CC | inactive | –
27 | O=C(Cn1c(SCCOc2ccccc2Cl)nc2ccccc21)N1CCOCC1 | inconclusive: 39.8 µM [cytotoxic, single point] | –
28 | COc1cccc(NC(=O)Cn2c(=O)n(-c3cccc(OC)c3)c(=O)c3sc4ccccc4c32)c1 | inconclusive: 1 µM [cytotoxic, full curve, poor fit] | –
29 | CC(=O)c1ccc(NC(=O)Cn2c(=O)n(-c3ccc(F)cc3)c(=O)c3c2cc(C)n3C)cc1 | inconclusive: 15.8 µM [cytotoxic, partial curve, poor fit] | –
30 | O=C1CCN(Cc2ccccc2OCC(O)CN2CCCCC2)CCN1 (stereo not drawn) | inactive | –
31 | CNc1ncc(C(=O)N2CC[C@@](O)(COC)C(C)(C)C2)cn1 | inactive | –
32 | CC(=O)N1Cc2ccccc2CC2(CCN(Cc3ccncc3)C2)C1 (stereo not drawn) | inactive | –
33 | COc1cccc2c1cc1c(=O)n(CC(=O)N3CCCCC3)nc(C)n12 | inconclusive: 0.316 µM [rising, full curve] | –
34 | COc1ccc(NC(=O)N2CCC(OCCOc3cccnc3)CC2)cc1 | – | inactive: -3.88% [at 12.5 µM]
35 | CN1CC(=O)N(c2ccccc2F)Cc2c(NCCCc3ccccc3)ncnc21 | inactive | –
36 | Cc1noc2c(N3CCN(Cc4ccccc4)CC3)cc(-c3cccnc3)nc12 | inconclusive: 50.1 µM [cytotoxic, single point] | –
37 | Cc1ccccc1Nc1n[nH]c(C(O)c2cccc(C(F)(F)F)c2)n1 (stereo not drawn) | inactive | –
38 | O=C(NC1CCCCC1)c1cn2cc(-c3cccc(C(F)(F)F)c3)sc2n1 | inactive | –
39 | Cc1ccc(C2Cn3nnc(C(=O)N4CCN(C(=O)c5ccc(N(C)C)cc5)CC4)c3CO2)cc1 (stereo not drawn) | inactive | –
40 | CCNc1ncc2nc(-c3cccs3)c(=O)n(Cc3cccc(OC)c3)c2n1 | inconclusive: 1.12 µM [rising, full curve, poor fit] | –
41 | COc1ccc(CNC(=O)CSCc2cnn(-c3ccccc3)c2-n2cccc2)cc1OC | inconclusive: 10 µM [cytotoxic, partial curve, poor fit] | –
42 | COC(=O)c1ccc2nc(CO[C@H]3CN(Cc4ccccc4C)C[C@H]3F)[nH]c2c1 | inactive | –
43 | CCn1ccc(C(=O)N2CC[C@H]3C(=O)NCCCCCCN(Cc4ccncc4)[C@@H]3C2)n1 | inactive | –
